# Results: PubChem BioAssay AID540267 (National Center for Advancing Translational Sciences (NCATS), 2011)
# About 530 (0.16%) of roughly 340,000 compounds were called active. Inconclusive results, whose numbers are uncertain, are shown with a selection of clear calls. Cut-off read from the data, not from the text of the source: active = activity change below about -80%; inconclusive = between about -30% and that limit; inactive = weaker than that.
# Experiment: Small Molecules that selectively kill Giardia lamblia: qHTS;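 note: parasites exposed to compound for two days anaerobically before the ATP read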
# Conditions: Giardia lamblia trophozoite viability; at 7.66 µM; stronger effect = lower value
# How it was run: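 Giardia lamblia trophozoites (100 cells/well) were incubated with compounds for 48 h at 37 deg C under anaerobic conditions. Viability was read as ATP content by one-step luminescence after 15-30 min at room temperature.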
# % is set by controls: 0 for no effect and ±100 for the full control effect.
row,SMILES,activity change
1,CC[C@@H](C)[C@@H]1CN([C@@H](CN2CCC[C@H]2CN2C(N)=NC[C@@H]2Cc2ccccc2)C(C)C)C(=N)N1CCCC1CCCC1,inactive: -5.86%
2,CC(=O)Nc1ccc(SCC(c2ccccc2)N2CCN(CC(C)C)CCC2=O)cc1 (stereo unspecified),inactive: -0.5%
3,CCOC(=O)CC[C@H](NC(=O)Cn1cnc2c(SC)nc(N)nc21)C(=O)OCC,inconclusive: -38.1% [inhibitor]
4,COc1cccc2c(=O)n(CC(=O)Nc3ccccc3)ccc12,inactive: -17.2%
5,CCOC(=O)c1cccc(S(=O)(=O)N(CCO)Cc2cc3cc(OC)ccc3[nH]c2=O)c1,inactive: 2.94%
6,Cc1ccc(C)c(N2CCN(C(=S)Nc3ccc4nc(N5CCN(C)CC5)cc(C)c4c3)CC2)c1,inconclusive: -74.1% [inhibitor]
7,COCCOC(=O)c1c(C)oc2ccc(NS(=O)(=O)c3ccc(C(=O)O)cc3)cc12,inactive: -5.69%
8,O=S(=O)(Nc1ncccn1)c1ccc(NC(=S)N2CCN(c3cccc(C(F)(F)F)c3)CC2)cc1,inactive: 11.1%
9,Cc1ccc(/C=C/c2nc3ccccc3s2)s1,inconclusive: -47.3% [inhibitor]
10,Cc1ccc(-c2csc(NC(=O)c3ccc(S(=O)(=O)N4CCc5ccccc54)cc3)n2)cc1,inactive: -19.8%
11,COc1ccc(C(=O)Nc2ccc3ncccc3c2)cc1,inconclusive: -60.3% [inhibitor]
12,O=S(=O)(c1ccc(SCCOc2ccc(F)cc2)nc1)N1CCCC1,inconclusive: -31% [inhibitor]
13,Cc1ccccc1NC(=O)Cn1nnc(S(=O)(=O)c2ccc(C(C)(C)C)cc2)c1N,inconclusive: -38.5% [inhibitor]
14,CCC(=O)Nc1cccc(-c2ccc(N3CCCCC3)nn2)c1,inconclusive: -51.1% [inhibitor]
15,O=C(NCCO)c1ccc2nc(-c3ccco3)c(-c3ccco3)nc2c1,inactive: 3.68%
16,CCN(CCCNC(=O)Cn1ncc2c([nH]c3ccc(C)cc32)c1=O)c1ccccc1,inconclusive: -34.4% [inhibitor]
17,Cc1ccc2cc(CCNC(=O)c3ccco3)c(=O)[nH]c2c1,inactive: 0.0911%
18,COc1cccc(C(=O)Nc2nnc(SCC(=O)NC3CCCC3)s2)c1,inconclusive: -42.2% [inhibitor]
19,O=C(Nc1ccncc1)c1c(Cl)cccc1Cl,inconclusive: -43.6% [inhibitor]
20,CC(C)c1ccc(NC(=O)C2CC3CCC2C3)cc1 (stereo unspecified),inconclusive: -37.5% [inhibitor]
21,COCCNC(=O)C(=O)Nc1cc2c3c(c1)CC(=O)N3CCC2,inconclusive: -37.2% [inhibitor]
